The campaign covered roughly 57,000 sequences. About 2,700 (4.7%) were called active. Rule as the data show it: active = GI50 up to about 1.1 µM and inactive = higher. Not all results are given here. Measured potencies and affinities stand elsewhere.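 Briefly, cells in 96-well plates were exposed to five compound concentrations for 48 h, and endpoints were estimated by linear interpolation. GI50 marks 50% less growth.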 Bounds are passed on as bounds.

This experiment concerns NCI-H322M. As to the kind of experiment: NCI tumour cell line growth inhibition, 48 h.
For the substance “mu-(1,7-nanodiamine-N,N')bis-(cis-aminedichloroplatimum (II)), CHEMBL2146215”, the GI50 is greater than 100 µM.

As to “[Bis(aminomethyl)tetramethylenesilane]tetrachloropaltinum(IV), CHEMBL2146189”, the GI50 worked out at 20.6 µM.

Substance “[Bis(aminomethyl)diethylsilane]tetrachloroplatinum(IV), CHEMBL2146203” showed a GI50 of 21.5 µM.

As for “[Bis(aminomethyl)ethylmethylsilane]tetrachloroplatinum(IV), CHEMBL2146192”, the GI50 worked out at 12.6 µM.

The substance “cis-Bis[[(trimethylsilyl)methyl]amino]tetrachloroplatinum(IV), CHEMBL2146191” had a GI50 of 15.1 µM.

“[Bis(aminomethyl)pentamethylenesilane]tetrachloropaltinum(IV), CHEMBL2146204” came in with a GI50 of 9.75 µM.

For “[Bis(aminomethyl)pentamethylenesilane]dichloropaltinum(II), CHEMBL2146202”, the GI50 came to 4.37 µM.

“[Bis(aminomethyl)dimethylsilane]dichloroplatinum (II), CHEMBL2146201” had a GI50 of 62.8 µM.

“[Bis(aminomethyl)dimethylsilane]tetrachloroplatinum(IV), CHEMBL2146190” displayed a GI50 of 15.8 µM.

CISPLATIN, CHEMBL11359 showed a GI50 of 6.32 µM.

“[Bis(aminomethyl)tetramethylenesilane]dichloropaltinum(II), CHEMBL2146205” returned a GI50 of 80.9 µM.
